Measured values from article PMC7819943, “Rice protein-binding microarrays: a tool to detect cis-acting elements near promoter regions in rice”.
This is one part of the list.

Target: T1, OsWOX13 (Oryza sativa, UniProt Q5QMM3 1-267)
T1 sequence: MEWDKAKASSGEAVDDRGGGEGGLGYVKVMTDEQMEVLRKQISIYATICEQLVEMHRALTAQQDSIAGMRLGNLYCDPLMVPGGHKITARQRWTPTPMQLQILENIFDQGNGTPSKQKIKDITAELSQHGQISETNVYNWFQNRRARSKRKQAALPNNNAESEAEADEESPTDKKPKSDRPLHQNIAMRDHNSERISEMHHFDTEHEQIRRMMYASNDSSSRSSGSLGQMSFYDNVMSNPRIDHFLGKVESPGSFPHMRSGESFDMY
Test: protein-binding microarray (RPBM); PBS, 2% BSA, 51.3 ng/ul salmon testes DNA, 50 uM zinc acetate, 200 nM TF, 25 C, 1 h; high values mean tight binding
Details: protein: recombinant; tags: N-terminal polyhistidine and DsRed monomer fusion (pET32a); label: CyDye5-dUTP incorporated in the synthesized complementary strand; 3' TTTTT single-stranded linker to array surface; dsDNA, one strand shown
Summary of the method: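 Polyhistidine-tagged DsRed fusions of transcription factors, joined at the N-terminus, were expressed in E. coli BL21-CodonPlus and isolated on Ni–NTA. They were incubated at 200 nM for 1 h at 25 °C on a custom Agilent array, double-stranded and BSA-blocked, in PBS with 2% BSA, salmon testes DNA and 50 µM zinc acetate. The binding signal is per-feature fluorescence intensity (arbitrary units) read on an Axon 4000B scanner after washing.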

Row | Sequence | binding signal
1 | CACAAATTGAAATACCATGTTTATCGACTTCAACCCAAGTCGGAGTCACCTAGTGCAG | 41000 fluorescence intensity (a.u.)
2 | AGCAAATAGATCTAATCTAACGGTGTAAATAACGGGTCCACGGAGTCACCTAGTGCAG | 7830 fluorescence intensity (a.u.)
3 | ATGACAAGACTCACCACTAATTAATTAATGACACACCTGGCGGAGTCACCTAGTGCAG | 19600 fluorescence intensity (a.u.)
4 | ACTATGATTGTACAAACACCGGCATGCACCCACCTGGCATCGGAGTCACCTAGTGCAG | 24500 fluorescence intensity (a.u.)
5 | ATGTGTTCAGTTAACGCCAAAATTAAAAGTTTGATTAGAACGGAGTCACCTAGTGCAG | 7050 fluorescence intensity (a.u.)
6 | CATGTCTCAATAAATTGATCGTTGGCAAAATCGGTTAGTCCGGAGTCACCTAGTGCAG | 4980 fluorescence intensity (a.u.)
7 | CCGTGAAATAATCTAATTAAGAGAAGGCCCTCGTGCCGCTCGGAGTCACCTAGTGCAG | 12200 fluorescence intensity (a.u.)
8 | GTTAATTTGATCCATACCACTGCAATTTTACCTATTCAGACGGAGTCACCTAGTGCAG | 17900 fluorescence intensity (a.u.)
9 | CAAGCTAATAATAATTAATTAATAATCTTCTGTCTGCTAACGGAGTCACCTAGTGCAG | 16000 fluorescence intensity (a.u.)
10 | CATGATTTCAACATGATCCCATAATATAACAACACACCTCCGGAGTCACCTAGTGCAG | 12300 fluorescence intensity (a.u.)
11 | CAAGCTTAATTAAGCTCATCGTCGCTCAGCATCAAGAAGCCGGAGTCACCTAGTGCAG | 6430 fluorescence intensity (a.u.)
12 | TTATAAAAGTTTAATCTCAATCATATCCAAAACGTTAATTCGGAGTCACCTAGTGCAG | 4580 fluorescence intensity (a.u.)
13 | TTTGATTATGCTTGTCATTTCCATTCATTTGCTCATATACCGGAGTCACCTAGTGCAG | 22100 fluorescence intensity (a.u.)
14 | TCTGATTATTAATTATCACTTTATCAGTCTCCAACGTTTACGGAGTCACCTAGTGCAG | 40900 fluorescence intensity (a.u.)
15 | TTGATTTATTTGATAGGATGTAGTATATAACCAGCTACATCGGAGTCACCTAGTGCAG | 20900 fluorescence intensity (a.u.)
16 | GTCAAAATTTTGACAACTATACCAAAATTTTAGCATTGTCCGGAGTCACCTAGTGCAG | 5870 fluorescence intensity (a.u.)
17 | TCCTTGATTTAATGTTGTCACCATTGACCTTATCACACATCGGAGTCACCTAGTGCAG | 40700 fluorescence intensity (a.u.)
18 | CTCCACTAATCCTACCAATTAACGAGTCGTACTCAATAATCGGAGTCACCTAGTGCAG | 7550 fluorescence intensity (a.u.)
19 | AAAGTAATTTCTTCAATAACTAACGGTCAAACTAATGGTCCGGAGTCACCTAGTGCAG | 8690 fluorescence intensity (a.u.)
20 | ACTAATTAACTATCTTTTAGCACTACATTATTTGATCCTCCGGAGTCACCTAGTGCAG | 34200 fluorescence intensity (a.u.)
21 | ACATGGTCGATAATTGAAACCGAATGTAGCCAGGCCAGGCCGGAGTCACCTAGTGCAG | 12600 fluorescence intensity (a.u.)

Row | Sequence | binding signal
22 | AGGGCTTAATTATTGCCTATTATATTTAGACTCAAAATCTCGGAGTCACCTAGTGCAG | 12200 fluorescence intensity (a.u.)
23 | AATCCATGATTATCACATATTTACTGTAGAACTACATTGTCGGAGTCACCTAGTGCAG | 11200 fluorescence intensity (a.u.)
24 | CTTGATTTATTATTTACCATGTTAGAAATGTTTATTTATACGGAGTCACCTAGTGCAG | 29600 fluorescence intensity (a.u.)
25 | GGTAATTGGAAGCCTATGCACGTGGGCGGGGAGGCGTCGGCGGAGTCACCTAGTGCAG | 19800 fluorescence intensity (a.u.)
26 | ATGATGGAACAGTGATGTGATCGGCGAGTTGTGTCGCGAGCGGAGTCACCTAGTGCAG | 8430 fluorescence intensity (a.u.)
27 | GAGACGAATTTATTAAGCCTAATTAATCCATCATTAGCACCGGAGTCACCTAGTGCAG | 7210 fluorescence intensity (a.u.)
28 | ACAATGAAGCCAATCACCATGATTTCGATTCTAAGAGATCCGGAGTCACCTAGTGCAG | 13500 fluorescence intensity (a.u.)
29 | CGGTTGAGAGAGCTAGCTGATTGGTTTTGATGGGAGGACCCGGAGTCACCTAGTGCAG | 7540 fluorescence intensity (a.u.)
30 | AGGCTTTTGTGATAGATTGTACGGTAGGCTATTTTGGCTACGGAGTCACCTAGTGCAG | 3470 fluorescence intensity (a.u.)
31 | TATGATTACATATATAACATTTGAAGAAATCAATTTATTCCGGAGTCACCTAGTGCAG | 7560 fluorescence intensity (a.u.)
32 | ACTGTAATGGTGATTTAATCCAACTGCGTTTTCGAGGAAACGGAGTCACCTAGTGCAG | 5820 fluorescence intensity (a.u.)
33 | TTATGTAATTTGTTTTGTTATTAGACTGTTCAATACTTTACGGAGTCACCTAGTGCAG | 8670 fluorescence intensity (a.u.)
34 | ACATAAACATAGAAGTTAAAATTTAACTTCTACAAGTTGTCGGAGTCACCTAGTGCAG | 3220 fluorescence intensity (a.u.)
35 | GAATGGTCCAACAAGGAGACTGAGGAATGGTCAACACATTCGGAGTCACCTAGTGCAG | 59700 fluorescence intensity (a.u.)
36 | AGGAGTAAATCATTTACATCGACAACGGTAGGAGTGGGATCGGAGTCACCTAGTGCAG | 4330 fluorescence intensity (a.u.)
37 | ATATATATATATATATATATGTTGTATGGGCATTGTTAAACGGAGTCACCTAGTGCAG | 12200 fluorescence intensity (a.u.)
38 | TTTCAGTTATTTCCTAATTATATTTCTATATGGACTTAGTCGGAGTCACCTAGTGCAG | 9980 fluorescence intensity (a.u.)
39 | TCGATTGACTGGACGAGGAATAGTAACCCTGCACATTGTGCGGAGTCACCTAGTGCAG | 44100 fluorescence intensity (a.u.)
40 | CTTGACATGTCTACTAACTGTCCATCAATAAACTTGTGATCGGAGTCACCTAGTGCAG | 15200 fluorescence intensity (a.u.)
41 | CTGACAAAATTACATACCAGACGTGTATCTCCAACATTAACGGAGTCACCTAGTGCAG | 3430 fluorescence intensity (a.u.)
42 | ATCTAATATTGAATATAATTTGATAATATGTATGTTTTGTCGGAGTCACCTAGTGCAG | 3790 fluorescence intensity (a.u.)
